“Also recorded” adds a separate entry of the source. The source holds more than one record for some entries. The list is limited to them. How the calls were made is not given here. An entry can have further records. The records of an entry do not match, cause unknown; they may come from other doses, times, organisms or constructs than stated. Counts like (3×) say how often a value occurs here.
Test system: CCRIS mutagenicity, Ames/micronucleus/aberration tests
Assay: CCRIS mutagenicity studies
Settings: Metabolic Activation: None

Structure (SMILES) | mutagenic call (Test System: Ames Salmonella typhimurium, Strain/Indicator: TA98, Method: Preincubation) | mutagenic call (Test System: Ames Salmonella typhimurium, Strain/Indicator: TA100, Method: Preincubation) | mutagenic call (Test System: Ames Salmonella typhimurium, Strain/Indicator: TA1537, Method: Preincubation) | mutagenic call (End Point: In vitro chromosomal aberrations, Test System: Chinese hamster lung (CHL/IU) cells)
CC(=O)[O-].CC(=O)[O-].O.O.O.O.[Co+2] | active; positive (2×) and active; positive (two experiments) | active; positive and inactive; negative and active; positive (two experiments) | active; positive (2×) and active; positive (two experiments) | –
CC(Cl)(Cl)Cl | – | – | – | inactive; negative (structural changes and ploidy showed weak response without dose respon; also recorded: inactive; negative. authors considered overall results for 1,1,1-trichloroethane to be equ; also recorded: active; positive (ploidy). authors considered overall results for 1,1,1-trichloroethane

From PubChem BioAssay AID1259407 (Chemical Carcinogenesis Research Information System (CCRIS), 2018)
